Reference: PubChem BioAssay AID1631 (National Center for Advancing Translational Sciences (NCATS), 2009)
Hit rate of the full screen: of about 260,000 compounds, about 890 (0.34%) were called active. Inconclusive results, whose numbers are uncertain, are shown with a selection of clear calls. Calls follow the shape of the dose curve; as a rule, active = well fitted activation curve with a large enough effect; inconclusive = small, poorly fitted or top-dose-only effect; inactive = no such curve, though single readings can be large or run the other way. No potency is given beside an inconclusive call; the fits are too rough.
Also: nearly all actives have a fitted effect of over 55% in size.
Potency is read from the fitted curve at half-maximal effect; tags tell the direction and shape of the fitted curve.

These compounds were tested against Pyruvate kinase PKM (Homo sapiens) (UniProt P14618) (assay: qHTS Assay for Activators of Human Muscle isoform 2 Pyruvate Kinase). Conditions: purified PKM2, Kinase-Glo ATP luminescence; Potency: activation; activation: at 57.5 µM (top of the series), 0% is enzyme alone, no compound.
UniProt P14618, sequence (P14618 whole entry, looked up, canonical isoform): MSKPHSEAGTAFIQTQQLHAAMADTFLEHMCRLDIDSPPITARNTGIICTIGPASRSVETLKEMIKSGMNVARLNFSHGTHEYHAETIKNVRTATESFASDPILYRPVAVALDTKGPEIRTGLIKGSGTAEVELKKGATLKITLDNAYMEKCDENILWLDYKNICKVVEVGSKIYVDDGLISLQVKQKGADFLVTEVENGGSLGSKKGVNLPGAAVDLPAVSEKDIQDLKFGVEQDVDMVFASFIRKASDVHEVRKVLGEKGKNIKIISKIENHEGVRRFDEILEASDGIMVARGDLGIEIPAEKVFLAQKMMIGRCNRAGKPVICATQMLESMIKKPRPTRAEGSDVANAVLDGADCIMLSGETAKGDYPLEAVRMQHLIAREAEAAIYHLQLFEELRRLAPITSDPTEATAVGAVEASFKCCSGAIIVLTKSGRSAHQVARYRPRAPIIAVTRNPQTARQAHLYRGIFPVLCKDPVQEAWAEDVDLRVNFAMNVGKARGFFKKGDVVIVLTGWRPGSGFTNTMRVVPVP
Summary of the method: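 hPK-M2, >95% pure; 0.1 mM ADP / 0.5 mM PEP final; imidazole pH7.2 buffer w/ 7 mM MgCl2, 50 mM KCl; 1 h RT; Kinase-Glo lum. Intermediate enzyme activity for dual inhibitor/activator qHTS.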
With CCC1(C)Cc2c(c(=O)n(-c3ccccc3)c3ncnc(N)c23)CO1 (configuration not stated) the Potency was “inactive”.
For Cn1c(=O)n(C)c2cc(S(=O)(=O)Nc3ccccc3O)ccc21, the Potency was inconclusive [rising, partial curve].
COc1cccc(NC(=O)CCN2C(=O)c3ccccc3S2(=O)=O)c1 was tested, and the Potency was inconclusive [rising, partial curve].
Oc1ccc2nc(Cc3ccccc3)[nH]c2c1 was tested, and the Potency was inconclusive [rising, partial curve, poor fit].
For N#Cc1c(N2CCN(C(=O)c3ccco3)CC2)nc(-c2ccccc2)c2c1CCCC2, the Potency was inconclusive [rising, single point].
For O=[N+]([O-])c1ccc(/C=N\NS(=O)(=O)c2ccc(F)cc2)o1, the Potency was “inactive”.
In the case of COc1ccc(-c2ccc(CCC(=O)O)n2NC(=O)c2ccc(C(C)(C)C)cc2)cc1, the Potency was inconclusive [rising, partial curve].
CO/N=C(\Cn1ncc(N2CCCC2)c(Cl)c1=O)c1ccc(Cl)cc1 was tested, and the Potency was active: 14.1 µM.
With COC(=O)CN(c1cc(Cl)ccc1OC)S(=O)(=O)c1ccc(OC)c(OC)c1 the Potency was inconclusive [rising, single point].
For Cc1ccccc1NC(=S)NC(C)C(c1ccccc1)N1CCN(C)CC1 (configuration not stated), the Potency was “inactive”.
For CC(C)(CO)NCC(O)COc1ccc2c(c1)CCC2 (configuration not stated), the Potency was inconclusive [rising, single point].
For CCSCCOC(=O)C1=C(C)N(C)C(=O)NC1c1ccc2c(c1)OCO2 (configuration not stated), the Potency was “inactive”.
With COc1cc(OC)cc(N(C(=O)c2snc(C(N)=O)c2N)C(C(=O)NCC2CCCO2)c2ccc(C)o2)c1 (configuration not stated) the Potency was “inactive”.
For O=C(CN1C(=O)/C(=C2\SC(=S)N(CCS(=O)(=O)O)C2=O)c2ccccc21)Nc1cccc(Br)c1, the Potency was inconclusive [rising, single point].
For Cn1cc(/C=N\NC(=O)c2cccs2)c2ccccc21, the Potency was “inactive”.
With Cc1cccc(NC(=O)CS(=O)(=O)c2c[nH]c3ccccc23)c1C the Potency was active: 25.1 µM.
With CC(=O)C1=C(S(=O)(=O)c2ccc(C)cc2)CS(=O)(=O)C1 the Potency was inconclusive [rising, single point].
Nc1cccc(S(=O)(=O)Nc2ccc(SC(F)F)cc2)c1 was tested, and the Potency was active: 14.1 µM.
With Cc1ccnc(-n2c(C)cc(/C=N/NC(=O)COc3cccc4cccnc34)c2C)c1 the Potency was “inactive”.
With Clc1cc2c(c(CSc3nc4ccccc4n4cccc34)c1)OCOC2 the Potency was inconclusive [rising, single point].
For O=S(=O)(Nc1ccccc1)c1ccc2c(c1)CCO2, the Potency was inconclusive [rising, partial curve].
In the case of CC(=O)c1ccc(S(=O)(=O)N2CCN(C(=O)CSc3ccc(C)c(C)c3)CC2)cc1, the Potency was inconclusive [rising, partial curve].
In the case of Cc1cccc(S(=O)(=O)c2c(N)n(Cc3ccco3)c3nc4ccccc4nc23)c1, the Potency was active: 22.4 µM.
For O=C(/C=C/c1ccc(Cl)cc1Cl)c1cccnc1, the Potency was inconclusive [rising, partial curve].
For CC(=O)SC(C[N+](=O)[O-])c1cn(C(C)=O)c2ccccc12 (configuration not stated), the Potency was inconclusive [rising, single point].
COc1ccc(CC(=O)Nc2cc(=O)n(C)c(=O)n2C)cc1 was tested, and the Potency was active: 15.8 µM.
In the case of CC(=O)c1ccc(S(=O)(=O)N2CCN(C(=O)CSc3ccc(F)cc3)CC2)cc1, the Potency was inconclusive [rising, partial curve].
With CCn1c2ccccc2c2nnc(SCCCn3c(=O)[nH]c4ccccc43)nc21 the Potency was inconclusive [rising, partial curve].
With CCOc1cc(/C=C\[N+](=O)[O-])ccc1OCC(=O)Nc1ccccc1C the Potency was inconclusive [rising, full curve].
For CCCCC(C(=O)NC1CCCC1)N(Cc1ccco1)C(=O)Cn1nnc(-c2ccc(F)cc2)n1 (configuration not stated), the Potency was “inactive”.
In the case of Cc1nc2ccc(NS(=O)(=O)c3ccc(C)c(C)c3)cc2s1, the Potency was inconclusive [rising, single point].
For COc1ccc(C(=O)Nc2cc(C(=O)c3ccccc3)c(C)oc2=O)cc1, the Potency was inconclusive [rising, partial curve].
C=CCOc1c(CNc2cccc(C(=O)O)c2)cccc1OCC was tested, and the Potency was “inactive”.
In the case of O=C1OC(c2ccccc2)=C/C1=C/N1CCOCC1, the Potency was active: 15.8 µM.
In the case of Cc1ccc(-c2cc(C(=O)N/N=C/C=C/c3ccco3)c3ccccc3n2)cc1C, the Potency was inconclusive [rising, partial curve].
In the case of Oc1ccccc1-c1nc(NCc2cccnc2)c2ccccc2n1, the Potency was inconclusive [rising, full curve, poor fit].
For C=C(C)C(=O)Nc1cccc(C2=NOC3(C2)C[C@@H](C(N)=O)N(C(=O)c2ccc(Cl)cc2)C3)c1 (some centres not stated), the Potency was “inactive”.
In the case of Cc1ccc(NS(=O)(=O)c2ccc3c(c2)oc(=O)n3C)c(C)c1, the Potency was inconclusive [rising, single point].
With Cc1cc(Cl)c(S(=O)(=O)NC2CCCC2)cc1OCC(=O)NC1CCCCC1 the Potency was “inactive”.
In the case of CC(Oc1ccc(Br)cc1)C(=O)O/N=C(\N)c1ccncc1 (configuration not stated), the Potency was “inactive”.
In the case of O=C(NC1CCCCC1)C(c1ccccc1)N(Cc1ccco1)C(=O)Cn1cnc2ccccc21 (configuration not stated), the Potency was “inactive”.
With Cn1ccsc1=NC(=O)c1ccc(S(C)(=O)=O)c([N+](=O)[O-])c1 the Potency was “inactive”.
With CCCCC1=CC2=C(c3ccco3)C(=O)C(C)(OC(=O)c3ccc(OC)cc3)C(=O)C2=CN1Cc1ccco1 (configuration not stated) the Potency was inconclusive [rising, partial curve].
For CC(=O)c1ccc(-n2c(CCC(=O)O)ccc2-c2cccs2)cc1, the Potency was inconclusive [rising, partial curve].
Cc1nnsc1NC(=O)OCc1ccccc1Cl was tested, and the Potency was inconclusive [rising, partial curve].
In the case of C=C1C(=O)C=C2CN(C(=O)c3ccccc3)[C@@](Cc3ccc(F)cc3)(C(=O)OC)[C@@H]12, the Potency was inconclusive [rising, partial curve].
In the case of C/C(=N\NC(=S)Nc1ccccc1C)C1Cc2ccccc2C(=O)O1 (configuration not stated), the Potency was inconclusive [rising, partial curve].
For O=C(/C=C/c1ccccc1[N+](=O)[O-])NCCc1ccc(F)cc1, the Potency was inconclusive [rising, single point].
For Cc1ccc(N=c2oc3cc(O)ccc3cc2C(N)=O)cc1, the Potency was inconclusive [rising, single point].
In the case of CC1(C)CC(=O)C2=C(C1)O[C@@]1(c3ccsc3)Cc3cc(C#N)ccc3C2O1, the Potency was inconclusive [rising, single point].
Cc1ccnc(SCc2cc(=O)c(OC(=O)c3ccc(S(=O)(=O)N(C)C)cc3)co2)n1 was tested, and the Potency was inconclusive [rising, partial curve].
In the case of CCC(C(=O)NCc1ccncc1)c1ccccc1 (configuration not stated), the Potency was “inactive”.
With CCNC(=O)NC(=O)C(C)Sc1ncc(C(F)(F)F)cc1Cl (configuration not stated) the Potency was inconclusive [rising, single point].
In the case of Cc1nn(C)c(Sc2ccccc2N)c1[N+](=O)[O-], the Potency was active: 11.2 µM.
C(=N\N1CCN(c2ccccn2)CC1)/C1=C(N2CCOCC2)C(=C/c2ccccc2)/CC1 was tested, and the Potency was inconclusive [rising, single point].
For CCOc1ccc(N(Cc2cc3cc(C)ccc3[nH]c2=O)C(=O)COC)cc1, the Potency was inconclusive [rising, single point].
O=C1CNC(=S)N1CCc1ccc(O)c(O)c1 was tested, and the Potency was inconclusive [rising, full curve].
In the case of CC1=C(C)C(=O)N(CCC(=O)O)C1=O, the Potency was inconclusive [rising, single point].
CCN(CCO)C1CC(=O)N(c2ccccc2C)C1=O (configuration not stated) was tested, and the Potency was inconclusive [rising, partial curve].
In the case of CCOc1ccccc1NC(=O)CSc1ccc2nnc(-c3cccnc3)n2n1, the Potency was “inactive”.
For COc1ccc(Cc2nc(-c3cccs3)no2)cc1, the Potency was inconclusive [rising, partial curve].
With CCCN1C(=O)S/C(=C\c2ccc(N3CCOCC3)o2)C1=O the Potency was active: 3.55 µM.
With CCOC(=O)C1=C(C)OC(N)=C(C(=O)OCC)C1c1cccnc1 (configuration not stated) the Potency was inconclusive [rising, single point].
With COc1ccc(C2=NN(C(C)=O)C(c3cccs3)C2)cc1OC (configuration not stated) the Potency was inconclusive [rising, partial curve].
Cc1cc(C)c(S(=O)(=O)N2CCCOC2CNC(=O)C(=O)NCc2cccnc2)c(C)c1 (configuration not stated) was tested, and the Potency was inconclusive [rising, single point].
CN1CCN(S(=O)(=O)c2cccc(C(=O)N(c3ccccn3)C3CCCCC3)c2)CC1 was tested, and the Potency was “inactive”.
For COCc1cc(C)nc(SCC(=O)Oc2ccccc2)c1C#N, the Potency was inconclusive [rising, single point].
In the case of CCn1c(COc2ccccc2C)nc2ccccc21, the Potency was inconclusive [rising, single point].
In the case of Cc1ccc(NC(=O)CN2C(=O)S/C(=C/c3ccc(-c4cccc(C(=O)O)c4)o3)C2=O)cc1, the Potency was inconclusive [rising, single point].
With C/C(Cn1cnc([N+](=O)[O-])n1)=N\NC(=O)c1ccccc1 the Potency was “inactive”.
With CN=C(N)NC(=O)Nc1c(C)cccc1C the Potency was inconclusive [rising, single point].
For COCC(C)n1c(SCC(=O)N(C)C2CCS(=O)(=O)C2)nc2ccccc2c1=O (configuration not stated), the Potency was inconclusive [rising, single point].
